What all share (test): In vitro killing effect of Claudin18.2-ADCs (CTG)
Common to all, as to format: cell-based, human

Assay [1] has as its system Cells lowly expressing NUGC4-claudin18.2. The settings on record: NUGC4 low claudin18.2 expression, cultured 4 days. As to the method:
(§1) The in vitro killing effects of Claudin18.2-ADCs on the human gastric signet ring cell carcinoma cell strain NUGC4 were measured using CTG (CellTiter-Glo Luminescence Cell Viability Assay®, Promega, G7573).
(§2) Human gastric signet ring cell carcinoma cell strain NUGC4 (Nanjing Cobioer, CBP60493);
(§3) A PCDH plasmid containing the full-length sequence of claudin18.2 (SEQ ID NO: 7) was transfected into NUGC4 cells by electroporation. After two weeks of pressure selection, the levels of claudin18.2 expression were measured, and monoclonal cell strains with different expression levels were sorted based on the measured expression levels by flow cytometry. NUGC4/hCLDN18.2 1 #, a monoclonal cell strain highly expressing human Claudin18.2, and NUGC4/hCLDN18.2 11 #, a monoclonal cell strain moderately expressing human Claudin18.2, were obtained. • 2. On day 1: NUGC4, NUGC4(WT) 11 #, and NUGC4/hCLDN18.2 1 #cells were harvested, and the density was adjusted to 2.5×10^4/mL; the cells were added to white transparent 96-well plates at 90 μL/well, i.e., about 2500 cells/well, and cultured overnight in a 37° C., 5% CO2 incubator. • 3. On day 2: Samples were serially diluted 5-fold in 96-well plates from an initial concentration of 400 nM to obtain 9 concentration points, and the diluted samples were added to the cell plates at 10 μL/well; the cells were cultured at 37° C. with 5% CO2 for 4 days. • 4. On day 8: The cell culture plates were taken out, and Cell Titer-Glo Reagent was added at 50 μL/well; the plates were left to stand at room temperature for 2-3 min, and fluorescence values were measured on a PHERAstar FS microplate reader (BMG LABTECH).
(§4) Data were analyzed using the software GraphPad Prism.

Assay [2] deals with Cells highly expressing NUGC4-claudin18.2. As to the method:
as §1, §2, §3, §4

The test system of assay [3] is Cells moderately expressing NUGC4-claudin18.2. The settings on record: NUGC4 moderate claudin18.2 expression, cultured 4 days. As to the method: as §1, §2, §3, §4

B1: ADC-22 (conjugate)
light: DIVLTQSPDSLAVSLGERATINCKSSQSLLNSGNQKNYLTWYQQKPGQPPKLLIYWASTRESGVPDRFSGSGSGTDFTLTISSLQAEDVAVYYCQNAYTYPFTFGQGTKLEIKRTVAAPSVFIFPPSDEQLKSGTASVVCLLNNFYPREAKVQWKVDNALQSGNSQESVTEQDSKDSTYSLSSTLTLSKADYEKHKVYACEVTHQGLSSPVTKSFNRGEC
heavy: EVQLVQSGAEVKKPGASVKVSCKASGYTFTSYWMHWVRQAPGQRLEWMGMIHPNSGSTNYNEKFKGRVTITRDTSASTAYMELSSLRSEDTAVYYCARLKTGNSFDYWGQGTTVTVSS[gap - human IgG1 constant region]
As to B1, the “Emax, cells lowly expressing NUGC4-claudin18.2” value in assay [1] came out at 88.37. Also, in assay [2] (NUGC4 high claudin18.2 expression, cultured 4 days, CTG), the “Emax, cells highly expressing NUGC4-claudin18.2” value was determined as 94.95. In addition, in assay [2] (NUGC4 highly expressing claudin18.2), the “activity in killing the high-expression cell line (conclusion in words)” value is listed as “good activity”. In assay [3], the “Emax, cells moderately expressing NUGC4-claudin18.2” value is on record as 97.20.
